Experimental data taken from PubChem BioAssay AID624417 (National Center for Advancing Translational Sciences (NCATS), 2012).
In all, about 410,000 compounds went through this assay and about 6,400 (1.6%) were called active. The shares of active, inactive and inconclusive entries below differ from those in the screen. Calls come from the whole dose curve; as a rule, active = well fitted inhibition curve with a large enough effect; inconclusive = small, poorly fitted or top-dose-only effect; inactive = no such curve, though single readings can be large or run the other way. Potencies of inconclusive entries are left out as doubtful fits.
Note: nearly all actives have a fitted effect of over 55% in size.
Potency is the fitted concentration of half-maximal effect; tags give direction and shape of the fitted curve.

These compounds were tested against Glucagon-like peptide 1 receptor (Homo sapiens) (UniProt P43220) (assay: qHTS of GLP-1 Receptor Inverse Agonists (Inhibition Mode)). Conditions: HEK293 GLP-1R CRE-luciferase, luminescence, 24 h, GLP-1R form is constitutively active; series mostly up to 38.3 µM.
Chain of UniProt P43220 (P43220 whole entry, looked up): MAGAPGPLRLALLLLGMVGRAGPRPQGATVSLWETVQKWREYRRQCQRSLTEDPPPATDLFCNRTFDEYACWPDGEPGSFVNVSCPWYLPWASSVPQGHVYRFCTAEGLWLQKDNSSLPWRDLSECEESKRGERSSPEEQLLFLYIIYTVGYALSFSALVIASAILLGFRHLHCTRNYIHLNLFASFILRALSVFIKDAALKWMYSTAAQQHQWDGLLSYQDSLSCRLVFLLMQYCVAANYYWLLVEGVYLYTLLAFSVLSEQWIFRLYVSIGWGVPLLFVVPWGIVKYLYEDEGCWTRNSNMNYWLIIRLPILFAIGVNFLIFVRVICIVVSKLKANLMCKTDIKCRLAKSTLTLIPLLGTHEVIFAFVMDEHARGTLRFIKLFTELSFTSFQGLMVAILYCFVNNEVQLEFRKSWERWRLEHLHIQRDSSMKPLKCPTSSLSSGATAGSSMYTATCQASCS
In short: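 HEK293 cells stably co-expressing a cAMP-responsive luciferase reporter and constitutively active GLP-1R were seeded, incubated 12 h, then exposed to compounds for 24 h at 37 C. Luminescence was read 12 min after detection reagent; inverse agonists lower signal.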
`Cc1cc(C)cc(NC(=O)Cn2c(C)cc(C)c(C#N)c2=O)c1` was tested, and the Potency was “inactive”.
In the case of `CSc1cccc(CN2CCCC(C(=O)Nc3cccc(-n4cccn4)c3)C2)c1` (stereo not given), the Potency is reported as inconclusive [inhibitor, partial curve, poor fit].
In the case of `Cc1cc(C)c2cc(CN(CCCN(C)C)C(=S)NCc3ccccc3)c(=O)[nH]c2c1`, the Potency is reported as inconclusive [inhibitor, single point].
For `COc1ccc(C(C(=O)Nc2ccc(F)cc2)N2CCN(c3cccc(C(F)(F)F)n3)CC2)cc1` (stereo not given), the Potency was inconclusive [inhibitor, partial curve, poor fit].
`O=C(c1ccc(CSc2ccc(Cl)cc2)cc1)N1CCCC1` was tested, and the Potency was inconclusive [inhibitor, single point].
`Cn1cccc1Cc1nnc(SCC(=O)NCc2ccc3c(c2)OCO3)n1CCc1ccccc1` was tested, and the Potency was inconclusive [inhibitor, single point].
`C/C(=N\NC(=O)c1cccc(N/N=C(\C)c2ccccc2)c1)c1ccccc1` was tested, and the Potency was inconclusive [inhibitor, single point].
`CCCOc1ccc(C(=O)Nc2cccc(NC(=O)c3ccc(Cl)cc3Cl)c2)cc1` was tested, and the Potency was inconclusive [inhibitor, full curve].
For `O=C(NCC(c1ccco1)N1CCCCC1)c1cc2c(s1)CCCC2` (stereo not given), the Potency was inconclusive [inhibitor, single point].
For `CCC1=Nc2ccc(Br)cc2C(c2ccccc2)N1CC(=O)OC` (stereo not given), the Potency was inconclusive [inhibitor, single point].
With `Cc1cccc(CSc2nc3c(c(=O)n2C)SCC3)c1` the Potency was inconclusive [inhibitor, partial curve, poor fit].
In the case of `Cc1ccc(-c2nnc(NC3CCCCC3)c3ccccc23)cc1S(=O)(=O)N1CCN(C)CC1`, the Potency is reported as inconclusive [inhibitor, single point].
For `N#Cc1c2n(c3c(=O)[nH]cnc13)CCCC2`, the Potency was “inactive”.
`Cc1csc2nc(COC(=O)c3ccc(NC(=O)c4ccccc4Br)cc3)cc(=O)n12` was tested, and the Potency was inconclusive [inhibitor, single point].
For `O=C(Nc1cccc(C(=O)OCc2cc(=O)n3ccsc3n2)c1)c1ccc(F)cc1`, the Potency was “inactive”.
For `O=C1/C(=C/c2ccccn2)SC(=S)N1NS(=O)(=O)c1ccccc1`, the Potency was inconclusive [inhibitor, partial curve, poor fit].
`COc1cc2c(cc1OC)CN(c1ccc([N+](=O)[O-])cc1Cl)CC2` was tested, and the Potency was inconclusive [inhibitor, single point].
`Cc1ccc(C(=O)N2CCN(c3ccccc3O)CC2)cc1S(=O)(=O)N1CCCCC1` was tested, and the Potency was inconclusive [inhibitor, partial curve, poor fit].
`CCNC(=S)NNC(=O)c1ccccc1OC(F)F` was tested, and the Potency was “inactive”.
In the case of `CC1(C(=O)Nc2ccc3c(c2)OCO3)CCN1C(=O)C1(c2ccc(Cl)cc2)CC1` (stereo not given), the Potency is reported as inconclusive [inhibitor, single point].
In the case of `CCCCN=C1NN=C(c2ccc(C)c(C)c2)CS1`, the Potency is reported as inconclusive [inhibitor, single point].
With `Cc1nn(CCC(=O)Nc2cccc(C#N)c2)c(C)c1S(=O)(=O)N1CCC(C)CC1` the Potency was inconclusive [inhibitor, single point].
`COC(=O)Nc1ccc(S(=O)(=O)N2CCN(c3ccc(F)cc3)CC2)cc1` was tested, and the Potency was inconclusive [inhibitor, single point].
In the case of `Cc1oc(-c2cccs2)nc1CN1CCN(Cc2ccc(F)c(F)c2)C(CCO)C1` (stereo not given), the Potency is reported as inconclusive [inhibitor, partial curve, poor fit].
In the case of `COc1ccc(-n2cnc3cc(C(=O)NCCC4=CCCCC4)ccc32)cc1`, the Potency is reported as inconclusive [inhibitor, single point].
In the case of `CCN(Cc1ccc(O)cc1)CC1CCCN(CCc2cccc(F)c2)C1` (stereo not given), the Potency is reported as inconclusive [inhibitor, partial curve, poor fit].
In the case of `CC(C)n1ncc2c(C(=O)N3CCN(Cc4ccc(Br)s4)CC3)cc(C3CC3)nc21`, the Potency is reported as inconclusive [inhibitor, full curve, poor fit].
With `COc1ccc(N(C(=O)/C=C/c2ccccc2)C2=CC3CCC(C2)N3C)cc1` (stereo not given) the Potency was inconclusive [inhibitor, partial curve, poor fit].
With `CCOc1ccc(S(=O)(=O)NCc2ccc(F)cc2)c2cccnc12` the Potency was “inactive”.
`CCN(c1ccc(C)cc1C)S(=O)(=O)c1nnc(NC(=O)c2ccc(F)cc2)s1` was tested, and the Potency was inconclusive [inhibitor, partial curve, poor fit].
In the case of `O=C(NCCCN1CCN(c2ccccc2)CC1)C1CCCN(c2ncnc3c2nc2n3CCCCC2)C1` (stereo not given), the Potency is reported as inconclusive [inhibitor, single point].
In the case of `Cc1cc2nc(C)n(CCCNC(=O)Nc3ccccc3)c2cc1C`, the Potency is reported as inconclusive [inhibitor, partial curve, poor fit].
For `CCC(C)NC(=O)CN1C(=O)CSc2ccc(S(=O)(=O)N3CCCC3)cc21` (stereo not given), the Potency was “inactive”.
With `CC1CCCCN1C(=O)c1cc(-c2ccc3c(c2)OCO3)on1` (stereo not given) the Potency was inconclusive [inhibitor, partial curve].
In the case of `O=C(Nc1ccccc1Cl)c1cc(C2CCCCN2C(=O)c2ccccc2)on1` (stereo not given), the Potency is reported as inconclusive [inhibitor, single point].
With `O=C(CN1CCN(c2ccccc2)CC1)N1CCc2[nH]c3ccccc3c2C1` the Potency was inconclusive [inhibitor, partial curve, poor fit].
With `CCCc1cc2c(cc1N(C)S(=O)(=O)c1ccccc1)OCO2` the Potency was inconclusive [inhibitor, partial curve, poor fit].
`OCCCCNCc1ccc(OCc2ccc(Cl)cc2Cl)cc1` was tested, and the Potency was inconclusive [inhibitor, partial curve, poor fit].
With `CCC(C)Sc1ccc([C@@H]2[C@@H]3C(=O)N(CC)C(=O)[C@@H]3[C@]3(C(=O)OC)CCCCN23)cc1` (stereo not given in full) the Potency was inconclusive [inhibitor, full curve, poor fit].
`COc1ccc(S(=O)(=O)N2CCC(C(=O)NCCC(=O)Nc3cccc(Cl)c3)CC2)cc1` was tested, and the Potency was inconclusive [inhibitor, partial curve, poor fit].
For `O=C(CCc1ccccc1)NCCS(=O)(=O)N1CCN(c2ccccc2)CC1`, the Potency was inconclusive [inhibitor, partial curve, poor fit].
`COc1ccccc1C(CNC(=O)CNC(=O)c1ccc(Cl)c(Cl)c1)N1CCCC1` (stereo not given) was tested, and the Potency was inconclusive [inhibitor, partial curve, poor fit].
For `Cc1c(Cl)cccc1NC(=O)c1cc(C2CC2)on1`, the Potency was inconclusive [inhibitor, single point].
For `O=C(Nc1nccs1)c1cc(S(=O)(=O)N2CCCCC2)ccc1Cl`, the Potency was inconclusive [inhibitor, full curve, poor fit].
For `Clc1ccc(-c2noc(CSc3nnc(-c4ccncc4)n3-c3ccccc3)n2)cc1`, the Potency was inconclusive [inhibitor, partial curve, poor fit].
`COc1cc2nc(C3CCC3)nc(N3CCN(c4ccccc4OC)CC3)c2cc1OC` was tested, and the Potency was inconclusive [inhibitor, single point].
With `O=C1/C(=C\c2ccc(O)cc2)SC(=S)N1Cc1ccccc1` the Potency was active: 11.2 µM.
For `CCC(Sc1nc2n[nH]c(C)c2c(=N)n1-c1ccc(Br)cc1)C(=O)N(CC)CC` (stereo not given), the Potency was inconclusive [inhibitor, single point].
For `COc1cc(/C=N/Nc2nc(C)cc(C)n2)ccc1OC(=O)c1ccco1`, the Potency was “inactive”.
`CCOC(=O)c1c(S(=O)(=O)N2CCN(c3cc(Cl)ccc3C)CC2)c(C)n(C)c1C` was tested, and the Potency was inconclusive [inhibitor, single point].
With `CN1CCN(/N=C/c2cccc(Cl)c2Cl)CC1` the Potency was inconclusive [inhibitor, partial curve, poor fit].
With `CCOC(=O)C1=C(C)N(Cc2ccccc2)C(=O)NC1c1ccccc1OS(=O)(=O)c1ccccc1[N+](=O)[O-]` (stereo not given) the Potency was inconclusive [inhibitor, single point].
`COc1cc(CC(=O)OCc2ccccc2F)cc(OC)c1OC` was tested, and the Potency was inconclusive [inhibitor, single point].
In the case of `CC(=O)N1CCc2cc(C(=O)CN3CCC(C)CC3)ccc21`, the Potency is reported as “inactive”.
In the case of `CCN(CC)c1ccc(NC(=O)C2CCCN(S(=O)(=O)c3ccc4c(c3)oc(=O)n4C)C2)c(C)c1` (stereo not given), the Potency is reported as “inactive”.
For `CC(C)C[C@@H](CN1CCC[C@@H]1CN1C(=S)NC[C@@H]1Cc1ccccc1)N1C[C@H](Cc2ccc(O)cc2)N(CC2CCCCCC2)C1=S`, the Potency was inconclusive [inhibitor, single point].
`Cc1ccc(OCc2nc(C#N)c(NCc3ccco3)o2)cc1` was tested, and the Potency was inconclusive [inhibitor, single point].
With `CC(C)c1ccc(O)c(NC(=S)NC(=O)c2ccc3c(c2)OCO3)c1` the Potency was inconclusive [inhibitor, partial curve, poor fit].
`CC(C)CC(c1nnnn1C(C)C)N1CCN(c2cccc(Cl)c2)CC1` (stereo not given) was tested, and the Potency was inconclusive [inhibitor, single point].
With `O=C(NCCc1c[nH]c2ccccc12)c1cccc(Br)c1` the Potency was inconclusive [inhibitor, partial curve, poor fit].
